The antibiotic and cytotoxicity screens of Wong et al. (2023)
This is one part of the list.

What was measured:
HSkMC = human skeletal muscle cells; assay: cytotoxicity call (relative viability < 0.9); conditions: 10 µM
HepG2 = assay: cytotoxicity call (relative viability < 0.9); conditions: 10 µM
S. aureus RN4220 = assay: growth inhibition call (relative growth <= 0.2); conditions: 50 µM

C[C@H]1CN([C@@H](C)CO)C(=O)c2cc(C#Cc3ccccc3F)cnc2O[C@H]1CN(C)C(=O)C1CCOCC1
inactive: cytotoxicity call (HSkMC) | cytotoxicity call (HepG2) | growth inhibition call (S. aureus RN4220)

CN1CCN(C(=O)C[C@@H]2CC[C@H](NC(=O)c3ccc4c(c3)OCO4)[C@H](CO)O2)CC1
inactive: cytotoxicity call (HSkMC) | cytotoxicity call (HepG2) | growth inhibition call (S. aureus RN4220)

N[C@@H](Cn1ccc(=O)c(O)c1)C(=O)O
inactive: cytotoxicity call (HSkMC) | cytotoxicity call (HepG2) | growth inhibition call (S. aureus RN4220)
